Test results as given in patent US10299477B2 (priority 2015, dated 2019).

Assays:
Assay type in all cases: in vivo
Plasmopara viticola = test: Test Example G: Downy mildew on vine; conditions: 250 ppm, sprayed 2.5 ml/pot before inoculation; evaluated 7-10 days after inoculation
Excerpt: [Test Example G] Downy Mildew on Vine
Seeds of a test plant (grape variety: Neomuscat) were planted followed by cultivating until three to four first leaves appeared. […] After the sprayed dilutions were dried, a zoosporangia suspension (1-2×10^4 zoosporangia/ml) of Plasmopara viticola was inoculated to the plants by spraying.

Alternaia brassicicola = test: Test Example C: Alternaria sooty spot on cabbage; conditions: in vivo
Excerpt: [Test Example C] Alternaria Sooty Spot on Cabbage
Seeds of a test plant (cabbage variety: Shikidori) were planted followed by cultivating until the cotyledons extended.

Botrytis cinerea = test: Test Example B: Gray mold on tomato; conditions: in vivo
Excerpt: [Test Example B] Gray Mold on Tomato
Seeds of a test plant (tomato variety: Oogata Fukuju) were planted followed by cultivating until three to five first leaves (true leaves) appeared.

[1] = system: Blumeria graminis f sp. hordei; test: Test Example D: Powdery mildew on barley; conditions: in vivo
Excerpt: [Test Example D] Powdery Mildew on Barley
After the sprayed dilutions were dried, conidia of Blumeria graminis f sp. hordei were inoculated to the plants by shaking off.

Puccinia recondita = test: Test Example E: Brown rust on wheat; conditions: in vivo
Excerpt: [Test Example E] Brown Rust on Wheat

Compound | Test G (control value class, downy mildew on vine) (Plasmopara viticola) | Test C (control value class, Alternaria sooty spot on cabbage) (Alternaia brassicicola) | Test B (control value class, gray mold on tomato) (Botrytis cinerea) | Test D (control value class, powdery mildew on barley) [1] | Test E (control value class, brown rust on wheat) (Puccinia recondita)
CCOc1cc(F)c(-c2c(-c3cccc(OC)c3Cl)cc(Cl)c(=O)n2CC)c(F)c1 [Compound 641] | H (H shows more than 50% of control values) | H (H shows more than 50% of control values) | H (H shows more than 50% of control values) | H (H shows more than 50% of control values) | H (H shows more than 50% of control values)
CCOc1cc(F)c(-c2c(-c3cccc(OC)c3Cl)cc(Br)c(=O)n2CC)c(F)c1 [Compound 643] | H (H shows more than 50% of control values) | H (H shows more than 50% of control values) | H (H shows more than 50% of control values) | H (H shows more than 50% of control values) | H (H shows more than 50% of control values)
CCn1c(-c2c(F)cc(OC)cc2F)c(-c2cccc(OC)c2Cl)cc(C)c1=O [Compound 644] | H (H shows more than 50% of control values) | H (H shows more than 50% of control values) | H (H shows more than 50% of control values) | H (H shows more than 50% of control values) | H (H shows more than 50% of control values)
CCOc1cc(F)c(-c2c(-c3cccc(OC)c3Cl)cc(C)c(=O)n2CC)c(F)c1 [Compound 645] | H (H shows more than 50% of control values) | H (H shows more than 50% of control values) | H (H shows more than 50% of control values) | H (H shows more than 50% of control values) | H (H shows more than 50% of control values)
Cn1c(-c2c(F)cccc2F)c(-c2ccc(F)cc2F)cc(Cl)c1=O [Compound 646] | L (L shows 50% or less of control values) | H (H shows more than 50% of control values) | H (H shows more than 50% of control values) | L (L shows 50% or less of control values) | H (H shows more than 50% of control values)
O=c1ccc(-c2ccc(F)cc2F)c(-c2c(F)cccc2F)n1CC(F)F [Compound 647] | H (H shows more than 50% of control values) | H (H shows more than 50% of control values) | H (H shows more than 50% of control values) | H (H shows more than 50% of control values) | H (H shows more than 50% of control values)
CCN1C(=O)CCC(c2ccccc2Br)=C1c1c(F)cc(F)cc1F [Compound 650] | L (L shows 50% or less of control values) | H (H shows more than 50% of control values) | H (H shows more than 50% of control values) | H (H shows more than 50% of control values) | H (H shows more than 50% of control values)
CCn1c(-c2c(F)cc(F)cc2F)c(-c2ccccc2Br)ccc1=O [Compound 651] | H (H shows more than 50% of control values) | H (H shows more than 50% of control values) | H (H shows more than 50% of control values) | H (H shows more than 50% of control values) | H (H shows more than 50% of control values)
Cn1c(-c2c(F)cc(F)cc2F)c(-c2cc(F)c(F)cc2F)cc(Cl)c1=O [Compound 653] | L (L shows 50% or less of control values) | H (H shows more than 50% of control values) | H (H shows more than 50% of control values) | L (L shows 50% or less of control values) | H (H shows more than 50% of control values)
COc1cc(F)c(-c2c(-c3cc(F)c(F)cc3F)ccc(=O)n2C)c(F)c1 [Compound 654] | L (L shows 50% or less of control values) | H (H shows more than 50% of control values) | H (H shows more than 50% of control values) | H (H shows more than 50% of control values) | H (H shows more than 50% of control values)
COc1cc(F)c(-c2c(-c3cc(F)c(F)cc3F)cc(Cl)c(=O)n2C)c(F)c1 [Compound 655] | L (L shows 50% or less of control values) | H (H shows more than 50% of control values) | H (H shows more than 50% of control values) | L (L shows 50% or less of control values) | H (H shows more than 50% of control values)
CCn1c(-c2c(F)cc(OC)cc2F)c(-c2cccc(F)c2Cl)cc(Br)c1=O [Compound 656] | L (L shows 50% or less of control values) | H (H shows more than 50% of control values) | H (H shows more than 50% of control values) | H (H shows more than 50% of control values) | H (H shows more than 50% of control values)
CCOc1cc(F)c(-c2c(-c3cccc(F)c3Cl)ccc(=O)n2CC)c(F)c1 [Compound 657] | L (L shows 50% or less of control values) | H (H shows more than 50% of control values) | H (H shows more than 50% of control values) | H (H shows more than 50% of control values) | H (H shows more than 50% of control values)
CCOc1cc(F)c(-c2c(-c3cccc(F)c3Cl)cc(Cl)c(=O)n2CC)c(F)c1 [Compound 658] | L (L shows 50% or less of control values) | H (H shows more than 50% of control values) | H (H shows more than 50% of control values) | H (H shows more than 50% of control values) | H (H shows more than 50% of control values)
CCOc1cc(F)c(-c2c(-c3cccc(F)c3Cl)cc(Br)c(=O)n2CC)c(F)c1 [Compound 659] | L (L shows 50% or less of control values) | H (H shows more than 50% of control values) | H (H shows more than 50% of control values) | H (H shows more than 50% of control values) | H (H shows more than 50% of control values)
CCOc1cc(F)c(-c2c(-c3cccc(F)c3Cl)cc(C)c(=O)n2CC)c(F)c1 [Compound 660] | H (H shows more than 50% of control values) | H (H shows more than 50% of control values) | H (H shows more than 50% of control values) | H (H shows more than 50% of control values) | H (H shows more than 50% of control values)
COc1cccc(-c2ccc(=O)n(C)c2-c2c(F)cc(F)cc2F)c1Cl [Compound 661] | H (H shows more than 50% of control values) | H (H shows more than 50% of control values) | H (H shows more than 50% of control values) | H (H shows more than 50% of control values) | H (H shows more than 50% of control values)
COc1cc(F)c(-c2c(-c3cccc(OC)c3Cl)ccc(=O)n2C)c(F)c1 [Compound 663] | H (H shows more than 50% of control values) | H (H shows more than 50% of control values) | H (H shows more than 50% of control values) | H (H shows more than 50% of control values) | H (H shows more than 50% of control values)
CCOc1cc(F)c(-c2c(-c3cccc(OC)c3Cl)ccc(=O)n2C)c(F)c1 [Compound 664] | H (H shows more than 50% of control values) | H (H shows more than 50% of control values) | H (H shows more than 50% of control values) | H (H shows more than 50% of control values) | H (H shows more than 50% of control values)
